Experimental findings from publication PMC12136788 are described below.

The other results are listed elsewhere or left out.

The labels stand for the following.
T1: UNK ZnF1-3 (human, UniProt Q9C0B0 31-174)
T1 sequence: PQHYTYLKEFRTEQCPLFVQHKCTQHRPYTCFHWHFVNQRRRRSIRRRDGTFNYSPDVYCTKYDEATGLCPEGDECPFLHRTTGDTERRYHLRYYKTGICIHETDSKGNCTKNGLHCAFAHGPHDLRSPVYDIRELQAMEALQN

B1: chr14:68739401:68739402:-_ENSMUSG00000022054_ENSMUST00000022638|mus_hu|FALSE|FALSE (ssRNA)
RNA: GGGAGUUCUACAGUCCGACGAUCUAUUGUGAUUGGGGGUCGGUGUGUAUACAGUGGCCCAGUGAUGCUUCCUGCAAAUGUGCUAAAUCUAGUCUCUUCACCCUCCAGGAGUUUUCUGUACGCAGCGAUUUCUAUAUCCAGAGCCAACAGAGGAUUGAGCAUCA
B2: 119570367_119580680_3109_CDS_ENSMUSG00000030172_ENSMUST00000032279|mouse|control|control (ssRNA)
RNA: GGGAGUUCUACAGUCCGACGAUCGGAGGAUCUGAAGUGGUCAUCCUCAUAGUUGUCAGCCAUUAAUUUCAUUCGAUUUUGUGUCUGCUGUUUGAGCUGCUGCACCAGGCGGUCCUUUUCCCGUUUCAGUGCAGCCACUUCUUCCAACAGAGGAUUGAGCAUCA
B3: chr4:39507275:39507276:-_ENSG00000109814_ENST00000316423|hu_hu|motif|central (ssRNA)
RNA: GGGAGUUCUACAGUCCGACGAUCACUAGAAGAUUCUCUUGUAUCACCAGUGUCCUUUUUGAAUGCAAAUCCCAAAAUAGCGGUCUUCUUAUCAGUUACUGUAUUAAACAGACUAUCUAUGAUCCGGGAAGCAAACCUCCUCCUCAACAGAGGAUUGAGCAUCA
B4: chr14:89307221:89307222:+_ENSG00000165533_ENST00000346301|hu_mus|hu_hu_hu_mus_False|18_38 (ssRNA)
RNA: GGGAGUUCUACAGUCCGACGAUCUCCUGUUUGGUUAGUGCCAGGGAGCUUCAAAGAUGUGCCAGGGCGUGGGACCUGAGCAAUAGCAUUUUCAUCCAGCAUCAUUUCAGCAAUUCCUUCCUGAUCUACAUCAAUUUCAUCUAUCAACAGAGGAUUGAGCAUCA
B5: chr16:94913618:94913619:+_ENSMUSG00000022897_ENSMUST00000122284|mus_mus|FALSE|FALSE (ssRNA)
RNA: GGGAGUUCUACAGUCCGACGAUCAGUCAUGUAAUGUGCAGGACCUGUAUUAGCAGAAAAUUGGUAUGUUGGAUGUCCAGCUAUGCCAGUCUCUUGGCGGGGAUUGGAGUAGACGGUCAAAUUAACGUCCAUAGCUCCAUUCUGCAACAGAGGAUUGAGCAUCA
B6: chr3:119450855:119450856:-_ENSMUSG00000028134_ENSMUST00000029780|mus_hu|mus_mus_mus_hu_False|48_98 (ssRNA)
RNA: GGGAGUUCUACAGUCCGACGAUCUGUGGUGCCACUAAGAGGUGUAUUUGCUGUCUGGACAGCUGUCACAGCUUGAAGAACUGCCUGCGCACGUUGGUUUAAUGUAUUAUCUGUCUUUAGUUCUUUGUGAUUCGAGUACUGGAUCAACAGAGGAUUGAGCAUCA

The assay addresses T1, UNK ZnF1-3. The assay is described as follows: nsRBNS (natural sequence RNA bind-n-seq); RBNS binding buffer (assumed for nsRBNS): 25 mM Tris pH 7.5, 150 mM KCl, 3 mM MgCl2, 0.01% Triton X-100, 500 ug/ml BSA, 20 U/ml SUPERase-In, 4 C; UNK is unkempt and MSI1 is Musashi-1; names of the RNAs are library labels; protein concentration not given here; high values mean tight binding.
Consider B1, for which the binding signal came to 0.959 enrichment R. As for B2, the binding signal was 0.424 enrichment R. In the case of B3, the binding signal was 1.08 enrichment R. With B4 the figure was 1.06 enrichment R; with B5, 1.49 enrichment R.

B6 showed a binding signal of 0.65 enrichment R.
